This is one part of the list.
The compounds below were run on T1, C. trachomatis L2/434/Bu expressing GFP (CTL2-GFP). Settings: total inclusion area; 28.5 h, 10 µM; inhibitor.
T1 construct: L2/434/Bu GFP intracellular growth in HeLa cells
Design: species or system HeLa; C. trachomatis total inclusion area by high-content imaging, normalised to DMSO
Outline: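 Following bulk GFP and resorufin fluorescence reads, infected cells were fixed, Hoechst-stained and imaged on a high-content platform. Inclusion total area and number per well served as growth proxies; nuclei counts indicated host viability. MICs were derived as for the fluorescence assay.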
For `Cc1ccc(S(=O)(=O)Nc2nc3ccccc3nc2Nc2ccc(C(=O)O)cc2)cc1C` [CBK300516], the “% of control remaining” value was 69.1555.
For `CN1CCN(C(=O)CN(Cc2ccc(Cl)cc2)S(=O)(=O)c2ccc(Br)cc2)CC1` [CBK265771], the “% of control remaining” value was 99.6096.
With `c1ccc(CNC2CCc3[nH]c4ccccc4c3C2)cc1` (stereo not drawn) [CBK091587T] the “% of control remaining” value was 100.362.
`Cc1nc(N)nc(NCCC2CCCN(C)C2)c1Cl` (stereo not drawn) [CBK307445] was tested, and the “% of control remaining” value was 62.5586.
`CC(=O)N1C[C@@H]2CCCCN(CC(=O)NC3CC3)[C@@H]2C1` [CBK285508] was tested, and the “% of control remaining” value was 87.6375.
In the case of `CCCc1nn(CC(=O)NC(C)C)c(=O)c2cc3ccsc3n12` [CBK284147], the “% of control remaining” value is reported as 77.8588.
In the case of `Cc1cc(=O)oc2cc(SCc3ccc(SC(F)(F)F)cc3)ccc12` [CBK002897], the “% of control remaining” value is reported as 80.9831.
`O=C(Nc1ccc(S(=O)(=O)Nc2nccc(/C=C/c3ccc(Cl)cc3)n2)cc1)c1ccc(Br)cc1` [CBK263500] was tested, and the “% of control remaining” value was 110.356.
`CN1CCN(CC2(Cn3ccnc3-c3ccc(C(=O)O)cc3)CC2)CC1` [CBK307641] was tested, and the “% of control remaining” value was 89.9332.
For `CC(=O)Nc1ccc(C(=O)N2CCCC2c2cccc(Cc3ccc(Cl)cc3)n2)cc1` (stereo not drawn) [CBK286144], the “% of control remaining” value was 67.935.
For `CCOC(=O)C1=C(C)NC(=O)NC1c1cccs1` (stereo not drawn) [CBK086430], the “% of control remaining” value was 26.5.
With `Cc1ccc(S(=O)(=O)Nc2ccc3c(ccn3CCC3CCN(C(=O)OC(C)(C)C)CC3)c2)cc1Cl` [CBK172990] the “% of control remaining” value was 97.7829.
For `COc1ccc(C(=O)N2CC[C@H]3NC(=O)N(Cc4ccccc4)C(=O)[C@H]32)cc1` [CBK289293], the “% of control remaining” value was 109.842.
With `COc1cccc(N2N=C3NNC(N)=C3N2)c1` [CBK093665] the “% of control remaining” value was 75.4992.
With `N#CCCN(C(=O)NCc1c(Cl)cccc1Cl)C1CCCCC1` [CBK156371] the “% of control remaining” value was 96.1097.
`O=S(=O)(Cc1noc([C@@H]2C[C@@H](O)CN2Cc2ccc(F)cc2)n1)c1ccc(F)cc1` [CBK288831] was tested, and the “% of control remaining” value was 118.846.
In the case of `CN(C)CCNC(=O)Cn1c(-c2cccs2)cc2cccnc21` [CBK282555], the “% of control remaining” value is reported as 103.762.
`CC1(C)C(CC(=O)NC2CCCCC2)CC1C(=O)NC1CCCCC1` (stereo not drawn) [CBK009260] was tested, and the “% of control remaining” value was 87.3932.
For `COc1ccc(OC)c(-c2nc(Nc3ccc(Cl)cc3Cl)sc2CC(=O)O)c1` [CBK264175], the “% of control remaining” value was 97.4576.
For `Cn1cncc1CN(Cc1ccccc1)C1CC(C)(C)NC(C)(C)C1` [CBK283226], the “% of control remaining” value was 95.0899.
In the case of `COc1ccc(CC(=O)NC(c2nnc3ccccn23)C(C)C)cc1` (stereo not drawn) [CBK304607], the “% of control remaining” value is reported as 57.0152.
With `O=C1C=C([C@@H]2O[C@H](CO)[C@H](O)C2O)C(=O)N1` (stereo partly drawn) [CBK201255] the “% of control remaining” value was 108.22.
With `CN(CC1COc2ccccc2O1)C(=O)CC1CCN(C(=O)CC2CCCCC2)CC1` (stereo not drawn) [CBK286265] the “% of control remaining” value was 116.438.
For `O=C(Nc1ccccc1)c1ccc(COc2ccc3ccccc3c2)o1` [CBK265897], the “% of control remaining” value was 84.8454.
In the case of `Cc1ccc(NS(=O)(=O)c2cc3c(OC4CCNCC4)nccc3s2)cc1` [CBK046309C], the “% of control remaining” value is reported as 95.1476.
`NS(=O)(=O)c1ccc(NC(=S)NNC(=S)Nc2ccc(F)cc2F)cc1` [CBK267102] was tested, and the “% of control remaining” value was 112.34.
In the case of `Fc1ccc(CN2CC3CCCC(C2)C3N2CCOCC2)cc1F` (stereo not drawn) [CBK282270], the “% of control remaining” value is reported as 86.5006.
`COc1ccc(C(=O)Nc2ccc3c(c2)C(=O)N(CCC(=O)O)C3=O)cc1` [CBK265921] was tested, and the “% of control remaining” value was 118.784.
For `Cc1ccc(CN2CCC(O)(Cn3ccc4ncccc43)CC2)o1` [CBK284751], the “% of control remaining” value was 128.429.
`O=C(Cn1c[n+]([N-][N+](=O)[O-])cn1)Nc1ncc(Br)cc1Br` [CBK262342] was tested, and the “% of control remaining” value was 120.609.
With `Cc1ccc2c(c1)C(Oc1cncc(N3CCNCC3)n1)CCO2` (stereo not drawn) [CBK172334G] the “% of control remaining” value was 69.0149.
With `CN(c1ccccc1)c1cc(-c2cccc(O)c2)nc2ccnn12` [CBK037121] the “% of control remaining” value was 82.2171.
For `COc1ccc(CCNC(=O)N2CCN(C3CCN(C)CC3)CC2)cc1OC` [CBK155897], the “% of control remaining” value was 110.92.
In the case of `CCc1[nH]nc(C)c1Cc1c(Cl)cccc1Cl` [CBK093598], the “% of control remaining” value is reported as 85.8022.
For `CN(C)CCn1c(=O)c2c(ncn2C)n(C)c1=O` [CBK012590], the “% of control remaining” value was 24.9786.
For `O=C(CC1(C(=O)O)CCCC1)NC1CCS(=O)(=O)C1` (stereo not drawn) [CBK286855], the “% of control remaining” value was 73.6492.
For `CC(C)CNc1nc(-c2cccnc2)cnc1N` [CBK063780], the “% of control remaining” value was 137.471.
With `C1CN(c2nc(N3CCOCC3)nc(N3CCOCC3)n2)CCN1` [CBK261380] the “% of control remaining” value was 110.58.
`CCCC1CCN(c2ncnc(Oc3ccc(C(=O)c4ccc(F)cc4)cc3)c2[N+](=O)[O-])CC1` [CBK116495] was tested, and the “% of control remaining” value was 84.7284.
For `C1=CC2N=C(SCc3ccccc3)OC2C=C1` (stereo not drawn) [CBK021412], the “% of control remaining” value was 105.2.
For `Cn1cc(CCCC(=O)NCCC2=CCCCC2)c2ccccc21` [CBK061756], the “% of control remaining” value was 95.7231.
`COc1cnc(-c2ccccc2OC)c(NC(=O)c2ccccc2)n1` [CBK145261] was tested, and the “% of control remaining” value was 88.2633.
In the case of `O=C(Nc1cccc(Oc2ccccc2)c1)c1ccc2[nH]ccc2c1` [CBK161728], the “% of control remaining” value is reported as 68.4827.
In the case of `O=C(NC(=S)Nc1ccc(C(=O)O)c(Cl)c1)c1ccc(-c2ccc(Cl)cc2)o1` [CBK265063], the “% of control remaining” value is reported as 88.0146.
For `O=C(O)CCC(=O)Nc1ccc(C(=O)N2CCCc3ccccc32)cc1` [CBK269118], the “% of control remaining” value was 77.8659.
`COc1ccccc1-c1nnc(SCC(=O)Nc2nccs2)o1` [CBK287390] was tested, and the “% of control remaining” value was 74.1656.
For `COc1cc(C2C3=C(CC(C)(C)CC3=O)Nc3ncnn32)cc(OC)c1OC` (stereo not drawn) [CBK265646], the “% of control remaining” value was 91.7093.
`CC(Oc1ccc(F)cc1)C(=O)N(C)CC1(C)COC1` (stereo not drawn) [CBK281702] was tested, and the “% of control remaining” value was 106.01.
`S=c1[nH]nc(-c2ccc(Cl)cc2)n1-c1cccnc1` [CBK086427] was tested, and the “% of control remaining” value was 60.9189.
With `CCCCn1c(SCc2nc(-c3cccc(Cl)c3)no2)n[nH]c1=O` [CBK295356] the “% of control remaining” value was 103.318.
With `COc1ccc(Cl)cc1NC(=O)C(=O)NCc1ccccn1` [CBK263837] the “% of control remaining” value was 117.227.

Reference: publication PMC12040169 (PLOS Biology, 2025)
